# A collection of fitness landscapes (doi:10.1016/j.celrep.2020.107928)
# In all, about 81,000 sequences were measured (“one-hybrid fitness for binding NBS DNA”: median about -0.1, highest 2% from about 0.36 on). This is one part of the list.
# B1: Caulobacter ParB omega fusion; a variant is named by its letters at X, in order, B8GW30 (parent)
# chain: MESVVVGEPGMSEGRRGLGRGLSALLGEVDAAPAQAPGEQLGGSREAPIEILQRNPDQPRRTFREEDLEDLSNSIREKGVLQPILVRPSPDTAGEYQIVAGERAWRAAQRAGLKTVPIMVRELDDLAVLEIGIIENVQRADLNVLEEALSYKVLMEKFERTQENIAQTIGKSXSHVANXMRLLXLPDEVQSYLVSGELTAXHARAIAAAADPVALAKQIIEGGLSVRETEALARKAPNLSAGKSKGGRPPRVKDTDTQALESDLSSVLGLDVSIDHRGSTGTLTITYATLEQLDDLCNRLTRGI
# Variants of: B1
# Assay: one-hybrid fitness for binding NBS DNA (the Noc-binding site; scaled: cognate 1, non-cognate 0); higher = stronger binding
# Settings: with NBS DNA site
# Method in brief: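 Pre- and post-selection plasmids were Illumina-sequenced, three replicate libraries were pooled, and any variant with under 10 reads was removed. The libraries were Caulobacter ParB with four specificity codons randomised, selected in E. coli USO through a HIS3 reporter whose site is 19 bp from the promoter. Cells grew 48 hours at 37°C on M9 without histidine, with 0.1 mM IPTG and 5 mM 3-AT. Fitness is the log change in variant-to-wild-type read ratio, rescaled against cognate and non-cognate.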
row,Variant,one-hybrid fitness for binding NBS DNA
1,MPRD,≤ 0.2
2,DHVC,≤ 0.2
3,RWKM,≤ 0.2
4,SGYD,≤ 0.2
5,LILY,≤ 0.2
6,WNLA,≤ 0.2
7,RQSA,≤ 0.2
8,QQCM,≤ 0.2
9,LHNF,≤ 0.2
10,VISS,≤ 0.2
11,SSGN,≤ 0.2
12,AIRI,≤ 0.2
13,EALQ,≤ 0.2
14,LFNT,≤ 0.2
15,LHTV,≤ 0.2
16,ALTG,≤ 0.2
17,KMDY,≤ 0.2
18,TCPL,≤ 0.2
19,PRKV,≤ 0.2
20,SKAD,≤ 0.2
21,NLLD,≤ 0.2
22,PCNY,≤ 0.2
23,NGWG,≤ 0.2
24,TRPR,≤ 0.2

row,Variant,one-hybrid fitness for binding NBS DNA
1,LLNM,≤ 0.2
2,NTPI,≤ 0.2
3,KEGT,≤ 0.2
4,HQMF,≤ 0.2
5,DQDS,≤ 0.2
6,STRY,≤ 0.2
7,SNTS,≤ 0.2
8,NSDV,≤ 0.2
9,KRMK,≤ 0.2
10,PQLE,≤ 0.2
11,TCIG,≤ 0.2
12,SYRY,≤ 0.2
13,SRGP,≤ 0.2
14,RMCR,0.433
15,GPIQ,≤ 0.2
16,GQGR,≤ 0.2
17,SEKS,≤ 0.2
18,INTS,≤ 0.2
19,PVTD,≤ 0.2
20,KFPR,≤ 0.2
21,TRCN,≤ 0.2
22,RWIR,≤ 0.2
23,AMSA,≤ 0.2
24,VKAP,0.214

row,Variant,one-hybrid fitness for binding NBS DNA
1,TERW,≤ 0.2
2,AECS,≤ 0.2
3,RAHN,≤ 0.2
4,GVHL,≤ 0.2
5,MNLG,≤ 0.2
6,APLY,≤ 0.2
7,YRST,≤ 0.2
8,IMQT,≤ 0.2
9,QGCG,≤ 0.2
10,RDFS,≤ 0.2
11,GTFA,≤ 0.2
12,KQLI,≤ 0.2
13,EDNK,≤ 0.2
14,ARTT,≤ 0.2
15,QMKM,0.416
16,DPVD,≤ 0.2
17,LSEF,≤ 0.2
18,HSPP,≤ 0.2
19,ETPR,≤ 0.2
20,YGYS,≤ 0.2
21,RYVD,≤ 0.2
22,GPAN,≤ 0.2
23,QADN,≤ 0.2
24,TFIT,≤ 0.2

row,Variant,one-hybrid fitness for binding NBS DNA
1,TCFS,≤ 0.2
2,HTGI,≤ 0.2
3,QFMY,≤ 0.2
4,LMSE,≤ 0.2
5,SHPV,≤ 0.2
6,FYQC,≤ 0.2
7,ENMG,≤ 0.2
8,TSRD,≤ 0.2
9,ATAY,≤ 0.2
10,PKYL,≤ 0.2
11,GASM,≤ 0.2
12,QMKP,0.277
13,PGYV,≤ 0.2
14,QVPQ,≤ 0.2
15,MQKA,≤ 0.2
16,RKNS,0.606
17,FRAL,≤ 0.2
18,PTCL,≤ 0.2
19,LWLR,≤ 0.2
20,RMMT,0.302
21,WLKA,≤ 0.2
22,SMIY,≤ 0.2
23,KDKR,≤ 0.2
24,QMFL,≤ 0.2

row,Variant,one-hybrid fitness for binding NBS DNA
1,PAHC,≤ 0.2
2,VYSF,≤ 0.2
3,SDPT,≤ 0.2
4,AQYC,≤ 0.2
5,LETC,≤ 0.2
6,NSPM,≤ 0.2
7,HVKH,≤ 0.2
8,DQLH,≤ 0.2
9,SCSL,≤ 0.2
10,WRWC,≤ 0.2
11,WWLP,≤ 0.2
12,RNNP,≤ 0.2
13,QVGK,≤ 0.2
14,YIYT,≤ 0.2
15,TLVE,≤ 0.2
16,RYID,≤ 0.2
17,HYYC,≤ 0.2
18,VWLN,≤ 0.2
19,CEHV,≤ 0.2
20,THNT,≤ 0.2
21,IQMS,≤ 0.2
22,PIHE,≤ 0.2
23,HTLV,≤ 0.2
24,QKST,0.526

row,Variant,one-hybrid fitness for binding NBS DNA
1,RTHV,≤ 0.2
2,TYQF,≤ 0.2
3,GAMR,≤ 0.2
4,LQNP,≤ 0.2
5,GSPG,≤ 0.2
6,PDLI,≤ 0.2
7,TRYN,≤ 0.2
8,SSND,≤ 0.2
9,GHYV,≤ 0.2
10,ASAI,≤ 0.2
11,TGDC,≤ 0.2
12,WAMA,≤ 0.2
13,HDSS,≤ 0.2
14,PRTF,≤ 0.2
15,QCTA,0.326
16,RKRR,0.736
17,HNQG,≤ 0.2
18,DLES,≤ 0.2
19,KLRW,≤ 0.2
20,LPVL,≤ 0.2
21,AGKK,≤ 0.2
22,LHTN,≤ 0.2
23,KPTL,≤ 0.2
24,HAVL,≤ 0.2

row,Variant,one-hybrid fitness for binding NBS DNA
1,MNER,≤ 0.2
2,HTCW,≤ 0.2
3,RTCS,0.467
4,TWMI,≤ 0.2
5,RSTM,≤ 0.2
6,ADRR,≤ 0.2
7,TLIC,≤ 0.2
8,ARGS,≤ 0.2
9,RVFV,≤ 0.2
10,TTEL,≤ 0.2
11,VDSD,≤ 0.2
12,INTT,≤ 0.2
13,MNTF,≤ 0.2
14,LDGA,≤ 0.2
15,PTYS,≤ 0.2
16,HERR,≤ 0.2
17,VRWL,≤ 0.2
18,FGGG,≤ 0.2
19,WQAC,≤ 0.2
20,YFVS,≤ 0.2
21,WKTC,≤ 0.2
22,SYWL,≤ 0.2
23,WSQS,≤ 0.2
24,CYQC,≤ 0.2

row,Variant,one-hybrid fitness for binding NBS DNA
1,AAGY,≤ 0.2
2,MCVR,≤ 0.2
3,KTPK,≤ 0.2
4,REAY,≤ 0.2
5,ARMR,≤ 0.2
6,GTPD,≤ 0.2
7,VLCV,≤ 0.2
8,VYTF,≤ 0.2
9,ACAS,≤ 0.2
10,RLTE,≤ 0.2
11,FWRE,≤ 0.2
12,PNKI,≤ 0.2
13,SLKP,≤ 0.2
14,LLHP,≤ 0.2
15,RRID,≤ 0.2
16,NRCS,≤ 0.2
17,TSEV,≤ 0.2
18,YPLT,≤ 0.2
19,CGLT,≤ 0.2
20,CKYS,≤ 0.2
21,FSST,≤ 0.2
22,HGVR,≤ 0.2
23,MMES,≤ 0.2
24,DKST,≤ 0.2

row,Variant,one-hybrid fitness for binding NBS DNA
1,RNNF,≤ 0.2
2,HFGG,≤ 0.2
3,MVQS,≤ 0.2
4,TKTA,≤ 0.2
5,SVYL,≤ 0.2
6,QILR,0.335
7,RSYY,≤ 0.2
8,CNPF,≤ 0.2
9,QITL,≤ 0.2
10,KNLA,≤ 0.2
11,HHHR,≤ 0.2
12,MPAK,≤ 0.2
13,KTSI,≤ 0.2
14,LDVK,≤ 0.2
15,YDTH,≤ 0.2
16,QFRS,0.312
17,RNPW,≤ 0.2
18,SRRV,≤ 0.2
19,WTKR,0.234
20,GTHM,≤ 0.2
21,EIYR,≤ 0.2
22,SYMC,≤ 0.2
23,VAYG,≤ 0.2
24,FQSS,≤ 0.2

row,Variant,one-hybrid fitness for binding NBS DNA
1,QKYM,≤ 0.2
2,SRFG,≤ 0.2
3,RTKK,0.304
4,TRGV,≤ 0.2
5,AWYR,≤ 0.2
6,SWIT,≤ 0.2
7,MWRT,≤ 0.2
8,RCAR,0.529
9,ALHD,≤ 0.2
10,FFPT,≤ 0.2
11,NMRS,≤ 0.2
12,LPPF,≤ 0.2
13,MFES,≤ 0.2
14,HSHE,≤ 0.2
15,LSPS,≤ 0.2
16,ETVR,≤ 0.2
17,FAYR,≤ 0.2
18,TCTI,≤ 0.2
19,LARM,≤ 0.2
20,RSTQ,≤ 0.2
21,RAMV,≤ 0.2
22,EVMR,≤ 0.2
23,VYCE,≤ 0.2
24,DIRD,≤ 0.2

row,Variant,one-hybrid fitness for binding NBS DNA
1,KHNH,≤ 0.2
2,RCWP,≤ 0.2
3,YDKG,≤ 0.2
4,CYRF,≤ 0.2
5,TSSK,≤ 0.2
6,THTT,≤ 0.2
7,ECNK,≤ 0.2
8,TYSV,≤ 0.2
9,MTSN,≤ 0.2
10,TKNT,≤ 0.2
11,WLRL,≤ 0.2
12,DVTR,≤ 0.2
13,NYGY,≤ 0.2
14,NAPW,≤ 0.2
15,VTSN,≤ 0.2
16,LAAG,≤ 0.2
17,DSAR,≤ 0.2
18,FAFS,≤ 0.2
19,HDNF,≤ 0.2
20,PHLK,≤ 0.2
21,RRIW,≤ 0.2
22,MNRI,≤ 0.2
23,QEVT,≤ 0.2
24,RYES,≤ 0.2

row,Variant,one-hybrid fitness for binding NBS DNA
1,PRTE,≤ 0.2
2,NQFD,≤ 0.2
3,SSVG,≤ 0.2
4,EAVD,≤ 0.2
5,RILP,≤ 0.2
6,EKPL,≤ 0.2
7,KTQW,≤ 0.2
8,GTPR,≤ 0.2
9,LHWT,≤ 0.2
10,CCNS,≤ 0.2
11,KAEC,≤ 0.2
12,AIGW,≤ 0.2
13,PYQV,≤ 0.2
14,LKKD,≤ 0.2
15,AACC,≤ 0.2
16,QWTS,≤ 0.2
17,TWEC,≤ 0.2
18,LGTD,≤ 0.2
19,EAQR,≤ 0.2
20,SLAI,≤ 0.2
21,DAIK,≤ 0.2
22,IQHG,≤ 0.2
23,QQMN,≤ 0.2
24,SVYF,≤ 0.2

row,Variant,one-hybrid fitness for binding NBS DNA
1,HYVR,≤ 0.2
2,TTYD,≤ 0.2
3,PPVE,≤ 0.2
4,VAWH,≤ 0.2
5,VVSD,≤ 0.2
6,NVKT,≤ 0.2
7,NLNY,≤ 0.2
8,QADE,≤ 0.2
9,HCQS,≤ 0.2
10,FTYS,≤ 0.2
11,YTSS,≤ 0.2
12,YTFC,≤ 0.2
13,EPCR,≤ 0.2
14,SKAC,≤ 0.2
15,QMEK,≤ 0.2
16,QRNS,0.716
17,TTPV,≤ 0.2
18,ATPW,≤ 0.2
